According to article PMC4336329 (PLoS ONE, 2015):
About 2,200 (0.71%) of roughly 310,000 compounds showed an effect of 50% or more. The effect is printed as a negative number. The list shows a part of the results.

molecular target: human ether-à-go-go-related gene (hERG) potassium channel (human, UniProt Q12809); assay: primary screen, population patch clamp on CHO cells stably expressing hERG
Sequence (Q12809 whole entry, looked up): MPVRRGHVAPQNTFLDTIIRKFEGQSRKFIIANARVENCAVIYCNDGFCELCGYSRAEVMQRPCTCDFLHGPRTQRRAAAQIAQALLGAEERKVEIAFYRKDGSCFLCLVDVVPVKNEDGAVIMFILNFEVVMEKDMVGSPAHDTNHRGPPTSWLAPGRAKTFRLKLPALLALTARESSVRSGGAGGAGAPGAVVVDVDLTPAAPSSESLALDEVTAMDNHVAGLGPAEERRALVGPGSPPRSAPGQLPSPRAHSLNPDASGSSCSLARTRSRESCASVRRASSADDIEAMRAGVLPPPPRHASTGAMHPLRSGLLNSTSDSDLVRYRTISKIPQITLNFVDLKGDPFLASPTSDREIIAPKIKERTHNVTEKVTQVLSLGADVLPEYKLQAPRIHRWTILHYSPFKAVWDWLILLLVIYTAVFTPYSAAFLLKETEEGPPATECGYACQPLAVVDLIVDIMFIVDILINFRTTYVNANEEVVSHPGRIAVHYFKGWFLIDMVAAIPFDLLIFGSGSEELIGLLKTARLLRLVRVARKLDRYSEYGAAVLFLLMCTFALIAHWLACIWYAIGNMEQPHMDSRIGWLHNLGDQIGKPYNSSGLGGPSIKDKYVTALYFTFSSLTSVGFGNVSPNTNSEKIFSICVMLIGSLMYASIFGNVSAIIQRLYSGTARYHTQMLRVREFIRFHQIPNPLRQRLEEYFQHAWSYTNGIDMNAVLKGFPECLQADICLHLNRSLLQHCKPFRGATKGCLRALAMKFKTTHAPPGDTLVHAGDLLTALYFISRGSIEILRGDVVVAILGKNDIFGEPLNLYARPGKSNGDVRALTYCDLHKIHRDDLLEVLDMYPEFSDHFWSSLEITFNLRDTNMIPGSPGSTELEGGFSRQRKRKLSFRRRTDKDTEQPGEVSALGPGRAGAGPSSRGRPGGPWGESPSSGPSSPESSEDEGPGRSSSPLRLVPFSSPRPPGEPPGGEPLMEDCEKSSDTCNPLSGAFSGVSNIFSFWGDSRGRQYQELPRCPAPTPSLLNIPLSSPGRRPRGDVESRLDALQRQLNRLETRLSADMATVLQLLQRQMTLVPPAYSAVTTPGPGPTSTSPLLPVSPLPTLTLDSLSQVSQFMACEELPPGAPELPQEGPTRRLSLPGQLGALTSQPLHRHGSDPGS

Row | SMILES | hERG current change (%, negative = inhibition) at 1uM [%]
1 | CC(=O)c1cnc2sccn2c1=O | 0.254
2 | O=c1ccccn1Cc1ccccc1F | 8.81
3 | CCOC(=O)CSc1nc2sc3c(c2c(=O)n1-c1ccc(OC)cc1)CCN(C)C3 | 10.9
4 | CCCn1cc(CN2CCCC(C(=O)c3cccc(OC(C)C)c3)C2)c(C)n1 (stereo not drawn) | -1.01
5 | S=C1Nc2ccccc2Sc2ccc(Cl)cc21 | -2.69
6 | Nc1c2c(nc3ccc(Br)cc13)N(C1CCCCC1)CC2.O=C(O)C(=O)O | -32.3
7 | Cc1ccc(C(C(=O)NCc2ccccc2)N(C(=O)c2csnn2)C2CC2)cc1 (stereo not drawn) | 8.21
8 | Cc1ccc(-c2csc3nc(C(C)C)oc(=O)c23)c(C)c1 | 13.5
9 | COC(=O)c1ccc(C(=O)OC)c(NC(=O)CN(C)Cc2ccc(Cl)c(Cl)c2)c1 | 15.9
10 | O=C(CSc1nc2ccccc2c(=O)[nH]1)N1CCN(c2ccccc2)CC1 | 12.9
11 | CC1CCCCC12NC(=O)N(CC(=O)NCC(=O)Nc1ccc(F)c(F)c1F)C2=O (stereo not drawn) | 16
12 | COc1ccccc1-n1c(SCC(=O)NC2CCS(=O)(=O)C2)nc2cc([N+](=O)[O-])ccc21 (stereo not drawn) | 6.29
13 | CC(=O)c1ccc(NC(=O)c2ccc(N3C(=O)c4cccnc4C3=O)cc2)cc1 | 17.5
14 | Cc1cc(C)c(S(=O)(=O)c2cccc(Br)c2C)c(=O)[nH]1 | 16.1
15 | O=C(CC(c1cccs1)S(=O)(=O)c1ccccc1)c1ccc(F)cc1 (stereo not drawn) | 14.5
16 | O=C(NCCN1CCN(c2cccc(Cl)c2)CC1)C1CCCN(S(=O)(=O)c2cnc[nH]2)C1 (stereo not drawn) | 1.46
17 | COc1ccc(C2N=C(N)N=C(N)N2c2ccccc2)cc1OC.Cl (stereo not drawn) | 9.48
18 | COCCn1c(-c2ccccc2)nc2oc3cc(OC)ccc3c(=O)c2c1=O | 6.17
19 | CN(C)C(CNC(=O)c1ccc(S(=O)(=O)Nc2ccccc2F)cc1)c1ccco1 (stereo not drawn) | 3.41
20 | CC(C)c1ccc(/C=C/C(=O)NCCCc2ccccc2)cc1 | 4.82
21 | COc1ccc(/C=C2\SC(=S)N(CCC(=O)NC3CCCC3)C2=O)cc1OC | 2.91
22 | CCn1cnc2c1c(=O)n(CC(=O)NCc1ccccc1)c(=O)n2Cc1ccccc1 | 11.8

Row | SMILES | hERG current change (%, negative = inhibition) at 1uM [%]
23 | Cc1cccc(N2CCN(S(=O)(=O)c3cc(-c4cc(C)no4)ccc3C)CC2C)c1 (stereo not drawn) | 15.2
24 | CC(C)(C)OC(=O)N1CCOCCOCCNCCOCCOCC1 | 9.78
25 | O=C(NCc1ccc2c(c1)OCO2)c1ccc(Br)s1 | 13.2
26 | CCOC(=O)CN/C=C(\C#N)c1ccc(F)cc1 | -7.46
27 | O=C(CN1CCCC1)Nc1c(Cl)cccc1Cl | 14.3
28 | COc1ccc(C(F)(F)F)cc1NC(=O)c1nc2nc(C)cc(C(F)F)n2n1 | 17.2
29 | COC(=O)CN(c1ccc(C)cc1)S(=O)(=O)c1ccc2c(c1)n(C)c(=O)c(=O)n2C | 5.25
30 | Cc1onc(-c2ccccc2)c1C(=O)Nc1ccc(S(=O)(=O)Nc2nccs2)cc1 | 8.75
31 | CN(CC(=O)Nc1cccc(F)c1)C(=O)c1cccnc1Sc1ccc(Cl)cc1 | 4.68
32 | CC(C)CN(CC(C)C)S(=O)(=O)N1CCC(C(=O)NC2CCCCCCC2)CC1 | 3.39
33 | O=S(=O)(Cc1ccccc1Cl)N1CCN(Cc2ccc3c(c2)OCO3)CC1 | 9.22
34 | Cc1cc(Cl)ccc1OCC(=O)Nc1ccccc1C(=O)N1CCOCC1 | 10.4
35 | Cc1cc(CNC(=O)COC(=O)Cn2[nH]c(=O)c3ccccc3c2=O)cc(C)c1O | 26.2
36 | COc1ccc(C(=O)NC(C(=O)NCCc2ccc3c(c2)OCCO3)C(C)C)cc1 (stereo not drawn) | 10.2
37 | O=C(CCCN1C(=O)c2cccc3cccc(c23)C1=O)NCc1cccnc1 | 10.8
38 | CC1CCCN(C(=O)CCNS(=O)(=O)c2ccc3c(c2)oc(=O)n3C)C1 (stereo not drawn) | 16.1
39 | COc1cc(OC)cc(C(=O)N2CCN(C(=O)c3cccs3)CC2)c1 | 10.1
40 | Cc1ccc(NCC(=O)N=Nc2c(O)n(C)c3ccccc23)cc1 | 2.3
41 | COc1cccc(N2CCN(C(=O)C3CCCN(c4ncnc5c4nc4n5CCCCC4)C3)CC2)c1 (stereo not drawn) | -1.74
42 | CCC(=O)NC(NC(=S)Nc1c(C)n(C)n(-c2ccccc2)c1=O)C(Cl)(Cl)Cl (stereo not drawn) | 6.62
43 | CN1CC(C(=O)O)Cc2c1ccc1ccccc21 (stereo not drawn) | 12.5
44 | Cn1c(C(=O)OC(C(=O)NC2CCCCC2)c2ccncc2)cc2sccc21 (stereo not drawn) | 8.87

Row | SMILES | hERG current change (%, negative = inhibition) at 1uM [%]
45 | CCc1nnc(NC(=O)COc2ccccc2[N+](=O)[O-])s1 | 6.91
46 | O=C(Cc1sc(Nc2ccccc2)nc1-c1ccccc1)NCc1ccccc1 | 11.8
47 | COc1cccc(C(=O)N(c2ccc(OC)cc2OC)C2C=CS(=O)(=O)C2)c1 (stereo not drawn) | -6.31
48 | Cc1cccc(NC(=O)NC2(C(=O)NCc3ccco3)CCCCC2)c1 | 2.75
49 | Cc1ccc(-n2c(C)nc3c(cnn3-c3ccc(F)cc3)c2=O)cc1 | 8.76
50 | COc1ccc(C(=O)Nc2cccc(NC(=O)c3cccs3)c2)cc1 | 2.36
51 | COc1ccc(C(=O)c2nccc3ccccc23)cc1 | 10.8
52 | COc1ccccc1CNC(=O)CSc1nc(-c2ccccc2)cn1N | 10.1
53 | Cn1c(SCc2ccc(F)cc2)nnc1-c1cccs1 | -2.34
54 | Cc1cc(N2CCOCC2)nc(NCc2ccccc2)n1 | -3.12
55 | O=C(O)C1Nc2c(O)cc(Cl)c([N+](=O)[O-])c2C2C=CCC12 (stereo not drawn) | 16.2
56 | CC1=Nc2ccccc2/C1=C/c1c(N)n2c(S(=O)(=O)C(C)C)nsc2nc1=O | 20.7
57 | O=C1CC(c2ccccc2)SC(N(c2ccccc2)c2ccccc2)=N1 (stereo not drawn) | 5.24
58 | Cc1ccc(NC(=O)NC(=O)CSc2nnnn2C)c(C)c1 | 5.05
59 | O=C(O)c1ccccc1-c1ccccc1C(=O)Nc1ccc2c(c1)[nH]c(=O)c1ccccc12 | 16
60 | O=C(O)c1ccc(/C=N/NC(=O)c2cc(-c3cccs3)nc3ccccc23)cc1 | 9.19
61 | CNC(=O)CC(=O)Nc1ccccc1C(=O)O | 22.6
62 | O=[N+]([O-])c1ccc(Cl)c(Cl)c1Cl | 12.3
63 | O=C(C1CCCN(S(=O)(=O)c2cnc[nH]2)C1)N1CCN(Cc2ccccc2)CC1 (stereo not drawn) | 12.1
64 | Cn1c(-c2ccc(Br)cc2)cnc1NCc1cccnc1 | -14.3
65 | CN1CCN(C(=O)c2ccc(CSc3nc4ccncc4n3Cc3ccc(F)cc3)cc2)CC1 | 8
66 | Cc1cc(C(=O)CSC(C)c2nc3ccccc3c(=O)[nH]2)c(C)n1C (stereo not drawn) | 10.4

Row | SMILES | hERG current change (%, negative = inhibition) at 1uM [%]
67 | COc1cc(C(=O)NCc2nnc(SCC(=O)Nc3c(C)cc(C)cc3C)o2)cc(OC)c1OC | 33.9
68 | COc1ccc(C2c3ccc(O)cc3Oc3ncn(CCCO)c(=N)c32)cc1 (stereo not drawn) | 8.07
69 | Cc1cc(C)cc(NC(=O)c2cccc(NC(=O)c3ccco3)c2)c1 | -7.71
70 | COc1ccc(CCNC(=O)c2c[nH]c3ccc(F)cc3c2=O)cc1OC | 13.6
71 | CC(C)C1C(C#N)=C(N)SC(N)=C1C#N | 17.6
72 | O=C(CN(c1ccccn1)S(=O)(=O)c1ccc(F)cc1)Nc1ccc(F)cc1F | -3.5
73 | O=C(NCC(=O)N1CCCC1)c1cccs1 | 3
74 | O=C(NC1CCCCC1)c1cc(F)cc2c1OCOC2 | 14.6
75 | COc1ccc(-c2nonc2NC(=O)c2oc3ccc(F)cc3c2C)cc1OC | 14.4
76 | COc1cc(C(=O)N/N=C/c2sc(N3CCOCC3)nc2-c2ccccc2)cc(OC)c1OC | 13.7
77 | CCN(c1ccccc1)S(=O)(=O)c1ccc(Cl)nc1 | 8.88
78 | Nc1ccc2nc(CCCCCCCCc3nc4ccc(N)cc4[nH]3)[nH]c2c1 | 9.23
79 | O=C(NCc1ccccc1Cl)C1CCC(CNc2c(N3CCCCC3)c(=O)c2=O)CC1 (stereo not drawn) | 7.95
80 | CCOC(=O)CN1C(=O)S/C(=C/c2cc(C)n(-c3ccccn3)c2C)C1=O | 0.493
81 | COc1ccc(N(C)S(=O)(=O)c2cccc(C(=O)Nc3ccc(OC)nc3)c2)cc1 | 9.59
82 | CCN(CC)S(=O)(=O)c1ccc(NC2c3ccccc3C(=O)N2c2ccc(C)cn2)cc1 (stereo not drawn) | 18.3
83 | COc1ccc(OC)c(Nc2nc(NCCO)c3ccccc3n2)c1.Cl | 11.1
84 | CCN=C1SC(CC(=O)Nc2ccccc2OCC)C(=O)N1CC (stereo not drawn) | -7.13
85 | CN1CCN(c2nc3c(c(=O)n(C)c(=O)n3C)n2CCSc2nnnn2-c2ccccc2)CC1 | 10.4
86 | O=C1CCC/C(=N\NC(=O)NC2CCCCC2)C1 | -3.81
87 | CCc1cc2cc(C)ccc2nc1SCC(=O)NNC(=O)c1ccco1 | 5.1
